Reference: PubChem BioAssay AID1794842 (National Center for Advancing Translational Sciences (NCATS), 2023)
Out of some 2,800 compounds screened, fewer than 10 were called active. The call rests on the fitted dose curve; in most records, active means well fitted curve in the direction sought with a large enough effect; inconclusive means small, poorly fitted or top-dose-only effect, or another doubt; inactive means no such curve, though single readings can be large or run the other way. This is one part of the list.

Each compound was assayed against Metallo-beta-lactamase type 2 (Klebsiella pneumoniae) (UniProt C7C422) (assay: qHTS to identify inhibitors of the New Delhi Metallo-beta-lactamase (NDM): Meropenem screen against the machine-based learning selections.). Settings: Purified NDM-1, meropenem hydrolysis, absorbance 300 nm; at 38.4 µM (top of the series) unless noted.
UniProt C7C422, sequence (C7C422 whole entry, looked up): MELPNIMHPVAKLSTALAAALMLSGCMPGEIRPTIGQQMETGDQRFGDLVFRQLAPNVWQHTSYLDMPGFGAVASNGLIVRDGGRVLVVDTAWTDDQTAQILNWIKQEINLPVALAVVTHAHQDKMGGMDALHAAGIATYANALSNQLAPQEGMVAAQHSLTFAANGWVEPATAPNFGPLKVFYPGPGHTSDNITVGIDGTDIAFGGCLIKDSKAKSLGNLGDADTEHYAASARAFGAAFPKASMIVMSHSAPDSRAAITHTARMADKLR
Excerpt: Assay Submitter (PI): James Inglese Ph.D., Patricia Dranchak Ph.D., Mahesh Aitha Ph.D. Assay Development and Screening Technology Laboratory (ADST) National Center for Advancing Translational Sciences (NCATS), Rockville, MD National Institute of Health (NIH), Bethesda, Maryland The metallo-beta-lactamases (MBL) are a main antibiotic resistance mechanism evolved by bacteria. There is an urgent clinical need for MBL inhibitors to mitigate this growing threat. To support a machine-based learning study, qHTS has been used to experimentally test inhibitors identified by prediction tools.
PROTOCOL TABLE (as described by Inglese et al., 2007) SEQUENCE No. (e.g., 1, 2, 3, etc.); […] (e.g., enzyme, Incubation, Reagent, etc.); VALUE; DESCRIPTION Primary Screen 1; NDM-1; 4 uL of 3 nM enzyme [2 nM final] in 50 mM HEPES (pH 7.0), 1 uM […], 0.01% Tween20; Use BioRaptr to dispense into two sets of Aurora black, clear bottom high base 1536-well plates 2; Compounds; 23 nL; Use Pin Tool (Wako) to transfer DMSO control and library compounds in DMSO 3; Incubate; >30 min 4a; Reagent; 2 uL of 50 uM nitrocefin [16.7 uM final] to one set of assay plates 4b; Reagent; 2 uL of 150 uM meropenem [50 uM final] to second set of assay plates 5a; Incubate; 15 min 5b; Incubate; 30 min 6a; Detector; Absorbance at 485 nm (bandwidth = 5 nm, 25 flashes/well) on Tecan Infinity 6b; Detector; Absorbance at 300 nm (bandwidth = 5 nm, 25 flashes/well) on Tecan Infinity NOTES (numbers refer to sequence above) 1; Column 1 of each plate received assay buffer without enzyme and columns 2-48 received enzyme for a final assay concentration of 2 nM. 2; Control plate contained DMSO in columns 1, 2, 3, and 4. 3; Compound interaction with enzyme. 4; Nitrocefin and meropenem substrates were prepared in the same assay buffer as step 1 for a final assay concentration of 16.7 uM and 50 uM, respectively, and added to all wells across respective sets of assay plates. 5; Default reader settings were applied for absorbance read at 485 nm (nitrocefin) or 300 nm (meropenem), bandwidth = 5 nm, 25 flashes/well. References: Inglese J, Shamu CE, Guy RK. 2007. Reporting data from high-throughput screening of small-molecule libraries. Nat Chem Biol. doi:10.1038/nchembio0807-438 Yasgar A, Shinn P, Jadhav A, Auld D, Michael S, Zheng W, Austin CP, Inglese J, Simeonov A. 2008. Compound Management for Quantitative High-Throughput Screening. J Lab Autom 13:79 - 89. doi:10.1016/j.jala.2007.12.004
Further: % of control where 0% means no effect.

Activity change, negative = inhibition, inactive:
Cc1nc(CN2CCN(C(C(=O)O)c3cc4ccccc4o3)CC2)cs1 (stereo not given) 17%, CN1C(=O)C(c2ccccc2)CC12CCN(C(=O)c1cccc(F)c1)CC2 (stereo not given) 0.0609%, COC(=O)NCC(=O)N1CC[C@@H]2[C@@H](CCC(=O)N2CCc2ccccc2)C1 3.07%, O=C(NCC1(O)CCCCC1)c1ccc2nc(Cc3ccccc3F)oc2c1 3.26%, COC[C@@H]1CN(C(=O)Cc2ccc(OC)cc2)C[C@H]1c1nc(C)no1 -1.7%, O=C(CC[C@@H]1CNC(=O)[C@@H]2C[C@H](NCc3ccc(F)cc3)CN12)NCc1ccccc1 0.0454% [at 57.5 µM], Cc1cnc(C(=O)N2CCC(N3C(=O)C4(CCCC4)C3c3ccccc3)CC2)cn1 (stereo not given) 2.61%, CN1[C@@H](CCC(=O)N2CCN(c3ccccc3)CC2)CNC(=O)[C@@H]2[C@H]1CCN2Cc1ccccc1 -4.61%, Cc1ccsc1-c1[nH]nc2ncc(-c3cn[nH]c3)nc12 3.03% [at 76.7 µM], NC(=O)CN1CCC(C(=O)NCc2cc(-c3ccc(Cl)cc3)on2)CC1 24.4%, COc1cc(SC)ccc1C(=O)N[C@H]1CCN2C(=O)[C@@H](CC(C)C)NC(=O)[C@@H]2C1 6.21% [at 57.5 µM], O=C(c1ccccc1-n1cncn1)N1CCC(N2CCCC2=O)CC1 -1.22%, Cn1cccc1C(=O)NC[C@H]1O[C@@H](CO)[C@@H](O)C1N1CCN(c2ccccc2)CC1 (stereo not given in full) 41.9%, O=C(O)c1ccc(CN2CCC[C@H]2c2nc(-c3ccc(F)cn3)no2)cc1 23.6% [at 57.5 µM], COCCCNC(=O)N1CCc2nn(CC3CC3)c(=O)n2CC1 -0.768%, Cc1nc2ccc(CNC(=O)c3cccc(CCC(C)(C)O)c3)cc2[nH]1 -0.105%, CCS(=O)(=O)NCc1nc(-c2ccc(C)cc2)c(-c2ccccn2)[nH]1 34.9%, O=C(N[C@@H](CO)c1ccccc1)c1cc(COc2cccc(F)c2)[nH]n1 0.514%, COc1cccc(-c2cc(C(=O)O)cc(S(=O)(=O)NC(C)C)c2)c1 7.08%, Cc1ccsc1-c1[nH]nc2ncc(-c3ccccc3O)nc12 1.84% [at 57.5 µM], O=C(NCc1ccc(C(F)(F)F)cc1)[C@@H]1Cc2nc[nH]c2CN1Cc1ccccn1 51.4% [at 57.5 µM], CCn1cc(C(=O)N2CCCC(CCc3cccc(F)c3)C2)cn1 (stereo not given) -0.315%, Cc1ccc(N2CCN(C(=O)C3CCCN(c4cnn(Cc5ccccc5)c(=O)c4)C3)CC2)cc1 (stereo not given) -0.731%, CC[C@H]1CN(Cc2ccc(OC)cc2O)CC[C@H]1CC(=O)N(C)CC#N 0.987% [at 57.5 µM], CNCCN1C(=O)CC[C@H]2CN(C(=O)c3ccc(Cl)cn3)CC[C@H]21 54.6%, CSCC(=O)Nc1ccc2n(c1=O)C[C@H]1C[C@@H]2CN(C(=O)c2ccc(-c3ccccc3)cc2)C1 -0.0534%, CN1CCCN(C(=O)C2(Oc3ccc4ncccc4c3)CCNCC2)CC1 40.1%, O=C(c1ccccc1Cl)N1CCC2(CC1)Cc1ccccc1NC2=O 0.724%, NC(=O)Cc1c[nH]c2ncc(-c3cccc(F)c3)cc12 7.55% [at 76.7 µM], C[C@H]1[C@@H]2[C@H]3OC(=O)[C@@H](C)[C@@H]3CC[C@@]2(C)CC[C@@H]1NC(=O)Cc1ccccc1 1.19% [at 57.5 µM], O=c1c2nc(NCc3cccs3)ccc2ncn1Cc1ccccc1 6.33% [at 57.5 µM], NC(=O)c1cccc(-c2cc(-c3cccnc3)c3cncn3c2)c1 17% [at 57.5 µM], CCOCCN1C(=O)COC[C@@H]1[C@H](O)c1ccc(NC(=O)Nc2ccccc2)cc1 0.857% [at 57.5 µM], NC(=O)CN1C(=O)[C@@H]2CN(C(=O)CC3(CC(=O)O)CCCC3)CCN2C1=O -1.04% [at 57.5 µM], Cc1ccc2c(c1)C(C[C@H]1CN(C(=O)NC(C)C)CC[C@H]1CC(=O)O)=NCC2 4.46% [at 57.5 µM], CC(C)Cc1cc(C(=O)N2C[C@H](C3CC3)[C@@H](N)C2)n(C)n1 1.75%, CC(C)NC(=O)CC[C@@H]1CNC(=O)[C@@H]2C[C@H](NCc3ccc(CO)o3)CN12 37.5% [at 57.5 µM], Cc1nc(N)nc(C)c1CC(=O)N1CC[C@@H](NC(=O)c2cccnc2)[C@H](O)C1 0.116%, OC(c1ccccc1)c1nc(Nc2ccc(Cl)cc2F)n[nH]1 (stereo not given) 0.643% [at 57.5 µM], CN(C)C(C(=O)N1CCN(Cc2nccn2C)CC1)c1cccc(F)c1 (stereo not given) -0.919%, COc1ccc(CN2C[C@H]3CN(Cc4cnn(C)c4)CCN3C2=O)cc1 -0.735% [at 57.5 µM], COc1ccccc1C(=O)N[C@H]1[C@H](O)[C@H](O)C[C@@H]1c1ccc(N2CCOCC2)nc1 4.99% [at 57.5 µM], NC(=O)NCc1cn(C2CCN(Cc3cc4ccccc4s3)CC2)nn1 27.6%, CCc1nncn1C1CCN(S(=O)(=O)c2ccc(F)cc2)CC1 -1.61%, CC(C)(C)c1ccc(-c2cc(C[C@H]3CNCC[C@H]3CC(=O)NCc3ccc(F)cc3)no2)cc1 -1.38%, OC1(CNc2cc(C(F)(F)F)nc(N3CCCC3)n2)CCCNCC1 (stereo not given) 67.7%, CC(C)=CC(=O)N1CC[C@H](NC(=O)Nc2ccc(F)cc2F)[C@H]1C(=O)N[C@@H](Cc1cccs1)C(N)=O -1.7%, O=C1COc2cc(C(=O)NCC3CCOc4ccccc4C3)ccc2N1 (stereo not given) 6.57%, O=C(NC1CC(c2nnc(CO)n2C2CC2)C1)c1ccc(F)cc1Cl (stereo not given) 0.242%, OCC1CNCCC12CCN(Cc1ccc3ccccc3c1)CC2 (stereo not given) 0.91%
